Counter-ions that a name gives are not always drawn. ± gives the standard deviation of the averaged measurements. Whole data set: some 1,300 compounds, median “normalised cell viability” near 1, cut for the lowest 2% near 0.14. This is one part of the list.
Test system: V-C8 (BRCA2-deficient hamster cells)
Assay: normalised cell viability (fraction of plate median); higher = more viable cells (less toxic)
Settings: 5 µM
Summary of the method: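 Library drugs, held as 10 mM stocks in DMSO, were diluted to 5 μM in 100 μl medium and added to 96-well plates of V-C8 hamster cells, either lacking BRCA2 or with BRCA2 restored, 24 h after seeding. Plates ran for 3 days (screen 1) or 6 days (screen 2), alongside solvent-only wells. Viability came from a resazurin readout, median-plate normalised, as the mean of triplicate wells.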

| Structure (SMILES) | normalised cell viability (treatment time: 3 days) | normalised cell viability (treatment time: 6 days) |
| --- | --- | --- |
| NC(=O)N/N=C/c1ccc([N+](=O)[O-])o1 [Nitrofural] | 0.51 ± 0.015 | 0.585 ± 0.037 |
| CN1CCCCC1CCN1c2ccccc2Sc2ccc([S+](C)[O-])cc21 (configuration not stated) [Mesoridazine besylate] | 1.07 ± 0.07 | 1.07 ± 0.017 |
| CN1CCCC(n2nc(Cc3ccc(Cl)cc3)c3ccccc3c2=O)CC1 (configuration not stated) [Azelastine HCl] | 0.96 ± 0.058 | 0.835 ± 0.087 |
| CN(C)CCC[C@@]1(c2ccc(F)cc2)OCc2cc(C#N)ccc21 [Escitalopram] | 1.04 ± 0.028 | 0.843 ± 0.034 |
| CCCC(=O)Nc1ncnc2c1ncn2[C@@H]1O[C@@H]2COP(=O)(O)O[C@H]2[C@H]1OC(=O)CCC [Bucladesine sodium salt] | 0.995 ± 0.021 | 1.04 ± 0.014 |
| CCN1CCN(C(=O)N[C@@H](C(=O)N[C@@H]2C(=O)N3[C@@H]2SC(C)(C)[C@@H]3C(=O)O)c2ccccc2)C(=O)C1=O [Piperacillin sodium salt] | 1.1 ± 0.044 | 1.022 ± 0.0042 |
| CO[C@@H]1[C@@H](OC(N)=O)[C@@H](O)[C@H](Oc2ccc3c(O)c(NC(=O)c4ccc(O)c(CC=C(C)C)c4)c(=O)oc3c2C)OC1(C)C [Novobiocin sodium salt] | 0.987 ± 0.029 | 1.07 ± 0.025 |
| CC(C)(C)NC[C@H](O)COc1nsnc1N1CCOCC1 [Timolol maleate salt] | 1.01 ± 0.022 | 1.07 ± 0.065 |
| O=C(Nc1cccc2c(=O)cc(-c3nnn[nH]3)oc12)c1ccc(OCCCCc2ccccc2)cc1 [Pranlukast] | 1.05 ± 0.047 | 1.07 ± 0.055 |
| NCCCC[C@H](N[C@@H](CCc1ccccc1)C(=O)O)C(=O)N1CCC[C@H]1C(=O)O [Lisinopril] | 0.966 ± 0.085 | 1.11 ± 0.068 |
| COC1=C(OC)C(=O)C(CCCCCCCCCCO)=C(C)C1=O [Idebenone] | 0.648 ± 0.036 | 0.713 ± 0.04 |
| CCOC(=O)[C@H](CCc1ccccc1)N[C@H]1CCc2ccccc2N(CC(=O)O)C1=O [Benazepril HCl] | 1.04 ± 0.057 | 1.105 ± 0.011 |
| CCOC(=O)OC(C)OC(=O)[C@@H]1N2C(=O)[C@@H](NC(=O)[C@H](N)c3ccccc3)[C@H]2SC1(C)C (some centres not stated) [Bacampicillin hydrochloride] | 0.908 ± 0.032 | 0.986 ± 0.062 |
| CC(=O)c1ccc(S(=O)(=O)NC(=O)NC2CCCCC2)cc1 [Acetohexamide] | 1.14 ± 0.11 | 1.04 ± 0.05 |
| CCCCC[C@H](O)/C=C/[C@@H]1[C@@H](C/C=C\CCCC(=O)O)[C@@H](O)C[C@H]1O [Dinoprost trometamol] | 1.05 ± 0.032 | 1.09 ± 0.012 |
| CCCNC(C)C(=O)Nc1ccccc1C (configuration not stated) [Prilocaine hydrochloride] | 1.05 ± 0.044 | 0.985 ± 0.024 |
| COc1ccc(CN(CCN(C)C)c2ccccn2)cc1 [Pyrilamine maleate] | 1.05 ± 0.056 | 1.03 ± 0.06 |
| CC(COc1ccccc1)N(CCCl)Cc1ccccc1 (configuration not stated) [Phenoxybenzamine hydrochloride] | 1.03 ± 0.071 | 0.965 ± 0.14 |
| Cc1cc(=O)oc2cc(O)ccc12 [Hymecromone] | 1.02 ± 0.046 | 1.04 ± 0.013 |
| CCOC(=O)c1ccc(OC(=O)CCCCCNC(=N)N)cc1 [Gabexate mesilate] | 0.925 ± 0.064 | 0.978 ± 0.021 |
| CCCN[C@H]1CCc2nc(N)sc2C1 [Pramipexole] | 0.957 ± 0.04 | 0.965 ± 0.031 |

| Structure (SMILES) | normalised cell viability (treatment time: 3 days) | normalised cell viability (treatment time: 6 days) |
| --- | --- | --- |
| c1ccc(C2CN3CCSC3=N2)cc1 (configuration not stated) [Tetramisole hydrochloride] | 1.06 ± 0.055 | 1.04 ± 0.029 |
| C=C1c2cccc(O)c2C(=O)C2=C(O)[C@]3(O)C(=O)C(C(N)=O)=C(O)[C@@H](N(C)C)[C@@H]3[C@@H](O)[C@H]12 [Methacycline hydrochloride] | 0.903 ± 0.013 | 0.92 ± 0.024 |
| Cn1c(=O)c2nc[nH]c2n(C)c1=O [Theophylline monohydrate] | 0.997 ± 0.097 | 1.03 ± 0.025 |
| Cc1scc2c1N(C(=O)CN1CCN(C)CC1)c1ccccc1NC2=O [Telenzepine dihydrochloride] | 1.02 ± 0.047 | 1.03 ± 0.041 |
| CO[C@H]1/C=C/O[C@@]2(C)Oc3c(C)c(O)c4c(c3C2=O)C2=NC3(CCN(CC(C)C)CC3)NC2=C(NC(=O)/C(C)=C\C=C\[C@H](C)[C@H](O)[C@@H](C)[C@@H](O)[C@@H](C)[C@H](OC(C)=O)[C@@H]1C)C4=O [Rifabutin] | 0.973 ± 0.096 | 0.876 ± 0.032 |
| O=C(Cn1ccnc1[N+](=O)[O-])NCCO [Etanidazole] | 1.02 ± 0.015 | 1.005 ± 0.0075 |
| COc1c(O[C@@H]2O[C@H](CO)[C@@H](O)[C@H](O)[C@H]2O)cc2c(c1OC)-c1ccc(SC)c(=O)cc1[C@@H](NC(C)=O)CC2 [Thiocolchicoside] | 1.22 ± 0.36 | 0.97 ± 0.017 |
| CN(C)CCN(Cc1cccs1)c1ccccn1 [Methapyrilene hydrochloride] | 1.05 ± 0.066 | 1.05 ± 0.033 |
| NC(=O)N1c2ccccc2C=Cc2ccccc21 [Carbamazepine] | 1.04 ± 0.057 | 0.979 ± 0.053 |
| Clc1ccc(C(Cn2ccnc2)OCc2c(Cl)cccc2Cl)c(Cl)c1 (configuration not stated) [Isoconazole] | 1.12 ± 0.04 | 1.09 ± 0.045 |
| Nc1nc(F)nc2c1ncn2[C@@H]1O[C@H](CO)[C@@H](O)[C@@H]1O [Fludarabine] | 1 ± 0.052 | 1.01 ± 0.1 |
| CC[C@H]1OC(=O)[C@H](C)[C@@H](O[C@H]2C[C@@](C)(OC)[C@@H](O)[C@H](C)O2)[C@H](C)[C@@H](O[C@@H]2O[C@H](C)C[C@H](N(C)C)[C@H]2O)[C@](C)(O)C[C@@H](C)/C(=N\OCOCCOC)[C@H](C)[C@@H](O)[C@]1(C)O [Roxithromycin] | 1 ± 0.058 | 0.958 ± 0.06 |
| Nc1nc(=O)c2nc(CNc3ccc(C(=O)N[C@@H](CCC(=O)O)C(=O)O)cc3)cnc2[nH]1 [Folic acid] | 1.1 ± 0.047 | 0.913 ± 0.041 |
| CC(=O)N[C@@H](CC(C)C)C(=O)O [N-Acetyl-L-leucine] | 1.01 ± 0.13 | 1.06 ± 0.022 |
| CC(C)NCC(O)COc1ccc(COCCOC(C)C)cc1 (configuration not stated) [Bisoprolol fumarate] | 1.04 ± 0.044 | 1.16 ± 0.049 |
| Nc1nc(=S)c2ncn([C@@H]3O[C@H](CO)[C@@H](O)[C@H]3O)c2[nH]1 [Thioguanosine] | 0.307 ± 0.013 | 0.28 ± 0.017 |
| O=C1CN2Cc3c(ccc(Cl)c3Cl)N=C2N1 [Anagrelide] | 1.01 ± 0.077 | 1.03 ± 0.054 |
| CO/N=C(\C(=O)N[C@@H]1C(=O)N2C(C(=O)O)=C(COC(N)=O)CS[C@H]12)c1ccco1 [Cefuroxime sodium salt] | 0.961 ± 0.015 | 0.933 ± 0.029 |
| O=C(NCC(O)CO)c1c(I)c(C(=O)NCC(O)CO)c(I)c(N(CCO)C(=O)CO)c1I (configuration not stated) [Ioversol] | 0.969 ± 0.05 | 1 ± 0.089 |
| Nc1ccc(S(=O)(=O)Nc2ccnn2-c2ccccc2)cc1 [Sulfaphenazole] | 1.01 ± 0.011 | 1.03 ± 0.031 |
| CC1Cc2ccccc2N1NC(=O)c1ccc(Cl)c(S(N)(=O)=O)c1 (configuration not stated) [Indapamide] | 1.02 ± 0.043 | 1.04 ± 0.025 |

| Structure (SMILES) | normalised cell viability (treatment time: 3 days) | normalised cell viability (treatment time: 6 days) |
| --- | --- | --- |
| Cc1cc(CC(=O)O)n(C)c1C(=O)c1ccc(Cl)cc1 [Zomepirac sodium salt] | 1.12 ± 0.033 | 0.958 ± 0.12 |
| CC[C@H]1OC(=O)[C@H](C)[C@@H](O[C@H]2C[C@@](C)(OC)[C@@H](O)[C@H](C)O2)[C@H](C)[C@@H](O[C@@H]2O[C@H](C)C[C@H](N(C)C)[C@H]2O)[C@](C)(O)C[C@@H](C)[C@@H]2N[C@@H](COCCOC)O[C@H]([C@H]2C)[C@]1(C)O [Dirithromycin] | 0.966 ± 0.052 | 1 ± 0.056 |
| O=C1CC2(CCCC2)CC(=O)N1CCCCN1CCN(c2ncccn2)CC1 [Buspirone hydrochloride] | 1 ± 0.036 | 1.06 ± 0.14 |
| CC(C)CC(=O)N[C@H](C(=O)N[C@H](C(=O)N[C@@H](CC(C)C)[C@@H](O)CC(=O)N[C@@H](C)C(=O)N[C@@H](CC(C)C)[C@@H](O)CC(=O)O)C(C)C)C(C)C [Pepstatin A] | 0.913 ± 0.017 | 0.847 ± 0.067 |
| C[C@H](O)C(=O)Nc1c(I)c(C(=O)NC(CO)CO)c(I)c(C(=O)NC(CO)CO)c1I [Iopamidol] | 0.952 ± 0.093 | 1.09 ± 0.06 |
| C[C@H]1C[C@H]2[C@@H]3CCC4=CC(=O)C=C[C@]4(C)[C@@]3(F)[C@@H](O)C[C@]2(C)[C@@]1(O)C(=O)CO [Betamethasone] | 0.504 ± 0.018 | 0.604 ± 0.032 |
| Oc1ccc(OCc2ccccc2)cc1 [Monobenzone] | 0.591 ± 0.076 | 0.711 ± 0.019 |
| CC(C(=O)O)c1ccc(N2Cc3ccccc3C2=O)cc1 (configuration not stated) [Indoprofen] | 1.012 ± 0.0016 | 1.08 ± 0.013 |
| CC1=Nc2ccc(Cl)cc2S(=O)(=O)N1 [Diazoxide] | 0.95 ± 0.024 | 1.01 ± 0.054 |
| C=C1/C(=C\C=C2/CCC[C@]3(C)[C@@H]([C@H](C)/C=C/[C@@H](O)C4CC4)CC[C@@H]23)C[C@@H](O)C[C@@H]1O [Calcipotriene] | 1.02 ± 0.034 | 0.891 ± 0.12 |
| Cc1ccc(Cl)c(Nc2ccccc2C(=O)O)c1Cl [Meclofenamic acid sodium salt monohydrate] | 1.08 ± 0.077 | 0.986 ± 0.036 |
| O=C(NCCO[N+](=O)[O-])c1cccnc1 [Nicorandil] | 1.15 ± 0.018 | 1.32 ± 0.37 |
| COC(=O)Nc1nc2ccc(SC(C)C)cc2[nH]1 [Methiazole] | 0.214 ± 0.0082 | 0.221 ± 0.025 |
| CN(C)CCOc1ccc(/C(=C(/CCCl)c2ccccc2)c2ccccc2)cc1 [Toremifene] | 0.716 ± 0.067 | 0.875 ± 0.052 |
| CCN1CCN(C(=O)N[C@@H](C(=O)N[C@@H]2C(=O)N3C(C(=O)O)=C(CSc4nnnn4C)CS[C@H]23)c2ccc(O)cc2)C(=O)C1=O [Cefoperazone dihydrate] | 0.989 ± 0.056 | 1.08 ± 0.05 |
| COCCOC(=O)C1=C(C)NC(C)=C(C(=O)OC/C=C/c2ccccc2)C1c1cccc([N+](=O)[O-])c1 (configuration not stated) [Cilnidipine] | 0.98 ± 0.03 | 1.01 ± 0.015 |
| CCCCNc1ccc(C(=O)OCCOCCOCCOCCOCCOCCOCCOCCOCCOC)cc1 [Benzonatate] | 0.983 ± 0.021 | 0.97 ± 0.027 |
| CCn1nc(C(=O)O)c(=O)c2cc3c(cc21)OCO3 [Cinoxacin] | 1.02 ± 0.067 | 1.01 ± 0.033 |
| Cc1cc(/C=C/c2ccc3cc(N(C)C)ccc3[n+]2C)c(C)n1-c1ccccc1 [Pyrvinium pamoate] | 0.132 ± 0.0063 | 0.172 ± 0.012 |
